Results published in the supplement of paper PMC4604168 (melanoma cell lines).
The other results are listed elsewhere or left out. Most values come without repeats; read them as rough.
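Also: cells treated in 1,536-well plates, then fixed and DAPI-stained, with nuclei counted from automated high-throughput microscope images.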

Each molecule was assayed on C32 (assay: cell count relative to DMSO control; melanoma cells; higher = more viable cells). Settings: library dose: standard library concentration; 72 h.
Cc1cn(-c2cc(NC(=O)c3ccc(C)c(Nc4nccc(-c5cccnc5)n4)c3)cc(C(F)(F)F)c2)cn1 [nilotinib] + O=C(CCCCCCC(=O)Nc1ccccc1)NO [vorinostat] (first compound 1 µM, partner dose 0.4 µM) was tested, and the cell count was 84.6%.
COc1ccc(C2=N[C@@H](c3ccc(Cl)cc3)[C@@H](c3ccc(Cl)cc3)N2C(=O)N2CCNC(=O)C2)c(OC(C)C)c1 [Nutlin-3] + O=C(O)c1ccc2c(c1)nc(Nc1cccc(Cl)c1)c1ccncc12 [CX4945] (first compound 0.5 µM, partner dose 2 µM) gave a cell count of 70.2%.
Cc1cc(Nc2cc(N3CCN(C)CC3)nc(/C=C/c3ccccc3)n2)n[nH]1 + Cn1cc(/C=C2\C(=O)Nc3cccnc32)c2ccccc21 [GW441756] (first compound 0.2 µM, partner dose 2 µM) gave a cell count of 111%.
Cc1cn(-c2cc(NC(=O)c3ccc(C)c(Nc4nccc(-c5cccnc5)n4)c3)cc(C(F)(F)F)c2)cn1 [nilotinib] + CCCS(=O)(=O)Nc1ccc(F)c(C(=O)c2c[nH]c3ncc(Cl)cc23)c1F [PLX4720] (first compound 1 µM, partner dose 0.4 µM) was tested, and the cell count was 71.5%.
Molecule Cn1c(=O)n(-c2ccc(C(C)(C)C#N)cc2)c2c3cc(-c4cnc5ccccc5c4)ccc3ncc21 + CC(C)(C)c1cnc(CSc2cnc(NC(=O)C3CCNCC3)s2)o1 [SNS-032] (first compound 0.02 µM, partner dose 0.05 µM) has a cell count of 81.8%.
Cc1cc(Nc2cc(N3CCN(C)CC3)nc(/C=C/c3ccccc3)n2)n[nH]1 + COc1cc(N2CCC(N3CCN(C)CC3)CC2)ccc1Nc1ncc(Cl)c(Nc2ccccc2S(=O)(=O)C(C)C)n1 [NVP-TAE684] (first compound 0.2 µM, partner dose 0.4 µM) gave a cell count of 60.8%.
Cc1cn(-c2cc(NC(=O)c3ccc(C)c(Nc4nccc(-c5cccnc5)n4)c3)cc(C(F)(F)F)c2)cn1 [nilotinib] + COc1ccc(-c2ccc3c(N4CCOCC4)nc(N4C[C@@H](C)O[C@@H](C)C4)nc3n2)cc1CO [KU0063794] (first compound 1 µM, partner dose 0.1 µM) gave a cell count of 69.9%.
For COc1ccc(C2=N[C@@H](c3ccc(Cl)cc3)[C@@H](c3ccc(Cl)cc3)N2C(=O)N2CCNC(=O)C2)c(OC(C)C)c1 [Nutlin-3] + Nc1nc(F)nc2c1ncn2[C@@H]1O[C@H](CO)[C@@H](O)[C@@H]1O [fludarabine] (first compound 0.5 µM, partner dose 1 µM), the cell count was 102%.
Cn1c(=O)n(-c2ccc(C(C)(C)C#N)cc2)c2c3cc(-c4cnc5ccccc5c4)ccc3ncc21 + CN(C)S(=O)(=O)c1ccc2c(c1)/C(=C/c1cc3c([nH]1)CCCC3)C(=O)N2 [SU6656] (first compound 0.02 µM, partner dose 2 µM) showed a cell count of 110%.
COc1ccc(C2=N[C@@H](c3ccc(Cl)cc3)[C@@H](c3ccc(Cl)cc3)N2C(=O)N2CCNC(=O)C2)c(OC(C)C)c1 [Nutlin-3] + C[C@]1(O)C[C@@H](c2nc(-c3ccc4ccc(-c5ccccc5)nc4c3)c3c(N)nccn32)C1 [OSI906] (first compound 0.5 µM, partner dose 2 µM) gave a cell count of 80.1%.
COc1ccc(C2=N[C@@H](c3ccc(Cl)cc3)[C@@H](c3ccc(Cl)cc3)N2C(=O)N2CCNC(=O)C2)c(OC(C)C)c1 [Nutlin-3] + CCCCCCCCc1ccc(CCC(N)(CO)CO)cc1 [fingolimod] (first compound 0.5 µM, partner dose 10 µM) gave a cell count of 9.74%.
In the case of CC(C)C[C@H](NC(=O)[C@H](Cc1ccccc1)NC(=O)c1cnccn1)B(O)O [Bortezomib] + O=C(Nc1ccccc1)c1cc([N+](=O)[O-])ccc1Cl [GW9662] (first compound 0.005 µM, partner dose 10 µM), the cell count is reported as 19.3%.
For Cc1cc(Nc2cc(N3CCN(C)CC3)nc(/C=C/c3ccccc3)n2)n[nH]1 + O=C(O)[C@@H]1[O][Sb](=[O])([O][Sb]2(=[O])[O][C@H]([C@H](O)CO)[C@H](O)[C@H](C(=O)O)[O]2)[O][C@H]([C@H](O)CO)[C@@H]1O [stibogluconate] (first compound 0.2 µM, partner dose 10 µM), the cell count was 86%.
